Values quoted from earlier work in patent US20250134850A1 (priority 2023, published 2025).

Conditions: for target V40

SMILES: COc1cc(O[C@@H]2O[C@H](CO)[C@@H](O)[C@H](O)[C@H]2O)c2c(=O)cc(-c3ccccc3)oc2c1OC [Andrographidine C]
- absorption, distinguishing, metabolism and excretion (ADME) qualities: strong
